Laboratory results taken from paper PMC4336329 (PLoS ONE, 2015).
Out of some 310,000 compounds screened, about 14,000 (4.5%) showed an effect of 50% or more. The effect is printed as a negative number. This is one part of the list.

biological target: human ether-à-go-go-related gene (hERG) potassium channel (human, UniProt Q12809); assay: primary screen, population patch clamp on CHO cells stably expressing hERG
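Note: peak tail current of the secondary pulse compared with the same well before compound.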

Chain of human ether-à-go-go-related gene (hERG) potassium channel (Q12809 whole entry, looked up): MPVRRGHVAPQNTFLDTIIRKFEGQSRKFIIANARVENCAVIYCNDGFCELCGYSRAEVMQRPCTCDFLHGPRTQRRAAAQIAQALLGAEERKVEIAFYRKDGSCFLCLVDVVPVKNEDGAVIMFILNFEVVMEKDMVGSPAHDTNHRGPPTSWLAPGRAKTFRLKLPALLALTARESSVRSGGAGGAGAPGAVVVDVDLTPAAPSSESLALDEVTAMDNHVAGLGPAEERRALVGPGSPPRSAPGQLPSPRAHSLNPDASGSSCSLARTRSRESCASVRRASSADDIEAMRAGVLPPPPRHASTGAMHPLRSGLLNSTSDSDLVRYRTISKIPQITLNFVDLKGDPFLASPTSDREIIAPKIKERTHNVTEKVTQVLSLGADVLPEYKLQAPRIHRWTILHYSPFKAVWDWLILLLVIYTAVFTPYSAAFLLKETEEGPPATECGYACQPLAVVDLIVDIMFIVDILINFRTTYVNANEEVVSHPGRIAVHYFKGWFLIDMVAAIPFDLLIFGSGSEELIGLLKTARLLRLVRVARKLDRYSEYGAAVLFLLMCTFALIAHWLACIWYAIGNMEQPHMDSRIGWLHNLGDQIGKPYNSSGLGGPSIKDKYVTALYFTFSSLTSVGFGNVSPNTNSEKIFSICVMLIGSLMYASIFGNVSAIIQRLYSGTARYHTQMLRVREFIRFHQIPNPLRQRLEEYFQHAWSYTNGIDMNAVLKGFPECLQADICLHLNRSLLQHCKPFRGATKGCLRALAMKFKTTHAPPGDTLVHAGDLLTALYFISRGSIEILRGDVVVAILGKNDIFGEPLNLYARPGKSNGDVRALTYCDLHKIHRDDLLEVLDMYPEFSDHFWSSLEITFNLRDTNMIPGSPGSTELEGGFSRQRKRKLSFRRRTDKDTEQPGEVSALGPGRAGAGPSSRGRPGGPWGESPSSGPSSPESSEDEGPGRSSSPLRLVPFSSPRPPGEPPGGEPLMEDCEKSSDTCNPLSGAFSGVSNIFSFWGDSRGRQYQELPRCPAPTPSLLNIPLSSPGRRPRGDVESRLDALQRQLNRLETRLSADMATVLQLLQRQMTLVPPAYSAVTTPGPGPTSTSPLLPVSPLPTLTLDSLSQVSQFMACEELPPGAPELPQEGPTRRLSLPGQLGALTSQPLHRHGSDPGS

| SMILES | hERG current change (%, negative = inhibition) at 10uM |
| --- | --- |
| CC(C)(C)c1nn(-c2ccccc2)c2[nH]c(=O)c(CNCc3ccc4c(c3)OCO4)cc12 | -17.9% |
| COC(=O)c1nn(-c2ccc(C)cc2)ccc1=O | 17.2% |
| Cc1ccc(C2CC(c3cccs3)=NN2S(=O)(=O)c2ccc(C)cc2)cc1 (centres unmarked) | 10.7% |
| C=CCOCCN(C)C1=NS(=O)(=O)c2cc([N+](=O)[O-])ccc21 | -19.8% |
| Cc1ccc(C(=O)N/C(=C/c2ccco2)C(=O)N2CCOCC2)cc1 | -12.7% |
| Cc1ccc(S(=O)(=O)N2CCC(C(=O)OCC(=O)N3CC(=O)Nc4ccccc43)CC2)cc1 | -27.2% |
| Cc1ccc2nc(SCC(=O)Nc3nonc3C)[nH]c2c1 | 12.6% |
| C(=N\Nc1nc(-c2ccccc2)cs1)/c1cccnc1 | -59.5% |
| Cc1ccsc1/C=N/NC(=O)CNC(=O)c1ccccc1 | 10.2% |
| CCOc1ccc(C(=O)N/N=C/c2ccccc2[N+](=O)[O-])cc1 | 6.35% |
| CC(C)OCCCNC(=O)C1CC(=O)N(C2CCCCCCC2)C1 (centres unmarked) | 11.5% |
| COc1ccccc1N1C(=O)C2C(c3ccc(F)cc3)NN(C(=O)c3ccc(C)cc3)C2C1=O (centres unmarked) | 0.222% |
| Cl.Clc1c(OCCCn2ccnc2)ccc2ccccc12 | -31.9% |
| COc1cc(N)c(Cl)cc1C(=O)OCC(=O)N1CCc2ccccc21 | -1.13% |
| Cc1cc(NC(=O)CSc2nc(-c3ccco3)cc(C(F)(F)F)n2)no1 | 23.3% |
| Fc1ccc(-c2nc3cnccn3c2NC2CCCC2)cc1 | 6.31% |
| CC1CCN(c2ccc(-c3ccc(NC(=O)C(F)(F)F)cc3)nn2)CC1 | 6.63% |
| CCN(CC)S(=O)(=O)c1cc(NC(=O)C(C)N2CCN(c3ccccn3)CC2)ccc1C (centres unmarked) | -39.3% |
| O=[N+]([O-])c1ccc(P(=O)(Cc2ccccc2)c2ccccc2O)cc1 (centres unmarked) | 26.2% |
| NC(=O)C1CCCN(S(=O)(=O)c2ccc3ccccc3c2)C1 (centres unmarked) | -7.12% |
| CCOC(=O)C1CCN(C(=O)Cn2cnc3sc(C)c(S(=O)(=O)N4CCCCC4)c3c2=O)CC1 | -35.5% |
| COC(=O)CSc1nc(C)cc(C(F)(F)F)c1C#N | -4.62% |

| SMILES | hERG current change (%, negative = inhibition) at 10uM |
| --- | --- |
| O=C(NCCc1nnc2ccc(SCC(=O)N3CCOCC3)nn12)c1ccccc1 | 7.63% |
| CC(=O)OCN(C#N)c1nc(N(C)C)nc(N(C)C)n1 | 5.8% |
| N#CCCN(C(=O)COc1ccc(F)cc1Br)c1ccccc1F | -8.54% |
| CCCCc1nc(C(N)=O)c2[nH]c(=O)n(-c3ccccc3F)c2n1 | -2.06% |
| COc1ccc(Cl)cc1NC(=O)CN(C)C(=O)c1cc(=O)c2ccccc2o1 | -28% |
| Cc1ccc(S(=O)(=O)N2c3ccccc3NC(=O)CC2C)cc1 (centres unmarked) | 10.5% |
| Cl.c1ccc(Cc2ccc(OCCN3CCOCC3)cc2)cc1 | -14.3% |
| NC(N)=N/N=C/c1ccc(OS(=O)(=O)c2ccccc2)cc1 | -55.6% |
| OCCC1CN(Cc2ccccc2-c2ccco2)CCN1Cc1ccccc1 (centres unmarked) | -35.7% |
| Cc1ccc(C(=O)NCc2ccco2)cc1Br | -11.5% |
| COc1cc(NC(=O)Cn2c(C)cc3ccccc3c2=O)cc(OC)c1OC | 17.1% |
| CC(=O)NS(=O)(=O)c1ccc(N2C(=O)c3ccccc3C2=O)cc1 | 1.42% |
| CSc1nnc(-c2ccncc2)n1/N=C/c1cn(-c2ccccc2)nc1-c1ccc(Cl)cc1 | -39.6% |
| Cc1ccc(CO/N=C/C2=C(Cl)c3ccccc3CC2)cc1 | 16.8% |
| NC(=O)c1ccc(-n2nnnc2SCC(=O)Nc2ccccc2-c2ccccc2)cc1 | -58.1% |
| O=C(c1ccc2c(c1)OCO2)N1CCC2(CC1)Oc1ccc(F)cc1C(=O)C21CC(c2ccccc2)=NO1 (centres unmarked) | -0.0659% |
| COc1ccccc1NC(=O)Cc1noc(CN(C)Cc2cccs2)n1 | -15.2% |
| NC(=O)Cn1c(=O)n(CC(=O)N2CCCCC2)c(=O)c2sccc21 | 27.4% |
| CCc1cc(-c2n[nH]c(=S)n2C(C)c2ccccc2)cs1 (centres unmarked) | -4.68% |
| CCCC(c1nnnn1C(C)(C)C)N1CCN(C(=O)c2ccco2)CC1.Cl (centres unmarked) | -12.8% |
| O=C(CN1CCN(Cc2ccccc2F)C1=O)NCCN1CCOCC1 | 15.7% |
| CCN/N=C(\Cc1nc2ccccc2[nH]1)c1ccccc1 | -0.648% |
